The values below come from a collection of fitness landscapes (doi:10.1016/j.celrep.2020.107928).

To fix the notation:
B1: Caulobacter ParB omega fusion; a variant is named by its letters at X, in order, B8GW30 (parent)
chain: MESVVVGEPGMSEGRRGLGRGLSALLGEVDAAPAQAPGEQLGGSREAPIEILQRNPDQPRRTFREEDLEDLSNSIREKGVLQPILVRPSPDTAGEYQIVAGERAWRAAQRAGLKTVPIMVRELDDLAVLEIGIIENVQRADLNVLEEALSYKVLMEKFERTQENIAQTIGKSXSHVANXMRLLXLPDEVQSYLVSGELTAXHARAIAAAADPVALAKQIIEGGLSVRETEALARKAPNLSAGKSKGGRPPRVKDTDTQALESDLSSVLGLDVSIDHRGSTGTLTITYATLEQLDDLCNRLTRGI

Over roughly 81,000 sequences, “one-hybrid fitness for binding NBS DNA” has its median near -0.1; the highest 2% begin near 0.36. The list shows a part of the results.

The variants in the assay derive from B1. Briefly: one-hybrid fitness for binding NBS DNA (the Noc-binding site; scaled: cognate 1, non-cognate 0); higher = stronger binding. The note with it: with NBS DNA site. In short, it runs like this:
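Fitness here means the log change in variant-to-wild-type read ratio between plasmids sequenced before and after selection. That scale was set so cognate equals 1 and non-cognate equals 0. The selection was a bacterial one-hybrid screen of Caulobacter ParB libraries, four specificity codons randomised, in E. coli USO carrying a HIS3 reporter with the site 19 bp from the promoter, grown 48 hours at 37°C on M9-minus-histidine with 0.1 mM IPTG and 5 mM 3-AT.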
Turning to DAGS, the “one-hybrid fitness for binding NBS DNA” value was at most 0.2. In the case of AGEI it was at most 0.2. As to RHKG, the “one-hybrid fitness for binding NBS DNA” value is at most 0.2. On to HCLT, for which the “one-hybrid fitness for binding NBS DNA” value was at most 0.2.

With RMQP, the “one-hybrid fitness for binding NBS DNA” value was at most 0.2. The result for PFPT reads at most 0.2; that for KEVP, at most 0.2. In the case of TTMV, the “one-hybrid fitness for binding NBS DNA” value is at most 0.2. For IAYS, the “one-hybrid fitness for binding NBS DNA” value is at most 0.2. Take WALA: the “one-hybrid fitness for binding NBS DNA” value is at most 0.2. The result for PLKS reads at most 0.2.

For AVNV, the “one-hybrid fitness for binding NBS DNA” value is at most 0.2. Turning to QKKT, the “one-hybrid fitness for binding NBS DNA” value was determined as 0.774. The result for DSSL reads at most 0.2.

As for VCIS, the “one-hybrid fitness for binding NBS DNA” value was at most 0.2. With LMCA, the “one-hybrid fitness for binding NBS DNA” value was at most 0.2.

With SKAI, the “one-hybrid fitness for binding NBS DNA” value was at most 0.2. As to LKEG, the “one-hybrid fitness for binding NBS DNA” value was at most 0.2.

As for SQHT, the “one-hybrid fitness for binding NBS DNA” value was at most 0.2. On to AVQV, for which the “one-hybrid fitness for binding NBS DNA” value was at most 0.2. On to LTDV, for which the “one-hybrid fitness for binding NBS DNA” value was at most 0.2. Turning to KQKS, the “one-hybrid fitness for binding NBS DNA” value was at most 0.2. As to QVSI, the “one-hybrid fitness for binding NBS DNA” value is at most 0.2. Consider SKTV, for which the “one-hybrid fitness for binding NBS DNA” value is at most 0.2. In the case of KPLG it was at most 0.2; in that of HVNT, at most 0.2; in that of VRTH, at most 0.2. The result for IDSK reads at most 0.2; that for AMHF, at most 0.2. In the case of PTIS it was at most 0.2; in that of AGFF, at most 0.2.

FTWC: the “one-hybrid fitness for binding NBS DNA” value was at most 0.2. For REPF, the “one-hybrid fitness for binding NBS DNA” value was at most 0.2.

In the case of RINK, the “one-hybrid fitness for binding NBS DNA” value is at most 0.2.

Take PSQV: the “one-hybrid fitness for binding NBS DNA” value is at most 0.2.

For the variant TVND, the “one-hybrid fitness for binding NBS DNA” value is at most 0.2. In the case of LLKW it was at most 0.2; in that of QKED, at most 0.2. The result for SCVF reads at most 0.2; that for VHCP, at most 0.2; that for PTQK, at most 0.2. As to EHRT, the “one-hybrid fitness for binding NBS DNA” value was at most 0.2. The result for TCRI reads at most 0.2; that for ETHM, at most 0.2; that for PVQG, at most 0.2. In the case of DHIS it was at most 0.2; in that of RILT, 0.258; in that of QVNF, at most 0.2. On to EPWI, for which the “one-hybrid fitness for binding NBS DNA” value was at most 0.2. The result for LYLR reads at most 0.2. In the case of NYTC it was at most 0.2; in that of QVKM, 0.229. In the case of IYDF it was at most 0.2; in that of EPLH, at most 0.2; in that of QNQE, at most 0.2. In the case of NCGW, the “one-hybrid fitness for binding NBS DNA” value is at most 0.2. In the case of CVKD it was at most 0.2; in that of KFGV, at most 0.2. In the case of PSVL it was at most 0.2; in that of QSMP, at most 0.2. With SCPA, the “one-hybrid fitness for binding NBS DNA” value is at most 0.2. For TEIF, the “one-hybrid fitness for binding NBS DNA” value was at most 0.2.

As for INDR, the “one-hybrid fitness for binding NBS DNA” value is at most 0.2.

As to SVAA, the “one-hybrid fitness for binding NBS DNA” value is at most 0.2.

As to YPSN, the “one-hybrid fitness for binding NBS DNA” value is at most 0.2.

As for HYRV, the “one-hybrid fitness for binding NBS DNA” value was at most 0.2.

On to CTGP, for which the “one-hybrid fitness for binding NBS DNA” value was at most 0.2. In the case of RCQN it was at most 0.2. The result for NWLM reads at most 0.2; that for MYPG, at most 0.2; that for RIGF, at most 0.2. In the case of MHGR it was at most 0.2; in that of YFPL, at most 0.2; in that of YNPA, at most 0.2. On to RQMR, for which the “one-hybrid fitness for binding NBS DNA” value was determined as 0.385. In the case of PVKY it was at most 0.2. In the case of QQFV it was at most 0.2.
